Whole data set: some 33,000 sequences, median “E-score (dimensionless, -0.5 to 0.5)” near -0.058, cut for the highest 2% near 0.35. The list shows a part of the results.
System: MvaT
Assay: PBM 8-mer E-score (mean of HK and ME arrays) (E-score (dimensionless, -0.5 to 0.5)); higher = stronger relative binding preference; most listed sequences are background and not binding sites
Method in brief: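 Reported values are rank-based E-scores, taken as the mean of two universal arrays and parsed with a custom script. Each 8-mer score falls between -0.5 and 0.5. The arrays, ME and HK, were double-stranded 60-mers with a constant 25-mer primer region and a variable 35-mer region covering all 8-mers. They were probed, by an earlier protocol, with full-length P. aeruginosa MvaT carrying an N-terminal glutathione S-transferase fusion.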

Sequence	PBM 8-mer E-score
CGATTGAC	-0.0965
ATACGGGA	-0.0541
AGACTCCG	-0.168
CAAGCTAA	-0.065
ACGCCAGA	-0.195
CATAGCCC	-0.211
ATAAACTG	0.175
TAGAATAA	0.306
CCGGAAGG	-0.282
AACTATGC	0.156
CTTTAACC	0.0678
ACGTTGAG	-0.16
AAGCCAAA	-0.0347
AAATTATA	0.45
CATCTGGC	-0.194
CTGGAATC	-0.104
TCATTGAA	0.0579
GAGCGGGA	-0.271
CATTTCGA	0.159
CACAGGCC	-0.19
GGGCACAC	-0.131
AAATGCTG	0.0079

Sequence	PBM 8-mer E-score
AGCGATGG	-0.275
GAATAAGA	0.201
CTGGCCGC	-0.21
CTCAGTAA	-0.000396
AATTAAGC	0.328
CCTGAGTA	-0.224
CTTGGTGA	-0.0334
ACCTACAG	-0.152
CTCCGTGA	-0.0547
ACATACAG	0.111
CCAATTAC	0.237
AATGGTAG	0.102
GTCGCTGA	-0.129
GACCACAA	-0.0932
CATCAAGG	-0.195
GTACTAAC	0.174
CCGAAAAC	-0.103
AAGACTGA	0.0304
GAGACTAC	-0.0909
ACGGCAAA	0.0774
AGCCCCCC	-0.303
CAATATCG	0.18

Sequence	PBM 8-mer E-score
ACCCTTTA	0.0505
CCATTACA	0.038
CGGAGCCA	-0.2
GAGGGCAC	-0.242
ATTATAAG	0.432
GCTTAGGA	-0.121
AAAAGCGA	0.0963
GTCCTTGA	-0.179
CCTATGCG	-0.105
AACCGTCG	-0.0206
ATCCCGCA	0.000229
CATCGTGC	-0.0373
GCATCTTA	-0.0529
CGCAGAGC	-0.227
CTAACTGC	-0.0134
AACCCCCC	-0.244
ATGCCCCC	-0.267
GCAATGCA	0.0608
AGAGCCTG	-0.235
AGTCAGAC	-0.171
GAAAATGC	0.139
CCTATCAG	-0.115

Sequence	PBM 8-mer E-score
AGCCGATC	-0.101
CAGATACC	-0.135
ATCAACGG	0.0684
ACTGGTTG	-0.0477
AGAGATAG	0.0665
GCCGGGCA	-0.299
ATACTTGA	0.205
TCTAAGAA	0.0655
ACAATTAC	0.319
AGACCGCG	-0.289
ACTCGTAG	0.0626
GCCAGCGC	-0.226
AACCCCTA	-0.0403
CAGACTGC	-0.226
GTGAATGA	-0.0318
ACTTTGGG	0.0887
AAGGTACG	-0.241
ATCCACCG	-0.212
CCCTTGAA	-0.206
ACCGCTAT	-0.0105
TAAGGAGA	-0.0995
ATGTTTCG	0.184

Sequence	PBM 8-mer E-score
CGTGGTAA	-0.119
ATTTGTGC	0.123
CCACCTGG	-0.304
CTCTAGTA	0.0412
AATTCTTC	0.0851
ACCACGAT	-0.0459
GCTCGTGA	-0.257
AGTAGTCC	0.0107
AAGTGGCG	-0.0358
CATTCTGG	-0.0978
CTGAAGGA	-0.26
CTCTAACA	0.0091
CATTACAC	0.163
GGTTCTAA	-0.0459
CGATATGC	0.0342
GTCCACCA	-0.0903
CAGTTTGG	-0.0519
GCGTGAGC	-0.305
CCTCTTTC	-0.0319
CATACACA	0.111
AATTAAAA	0.373

From the supplement of paper PMC4466236
